According to patent publication US12258574B2, “Methods and compositions for transducing lymphocytes and regulating the activity thereof” (Exuma Biotech Corp., priority 2016, dated 2025):

Experiment: Thermal denaturation by differential scanning calorimetry (DSC)
Details: presence of acyclovir (29.4 μM); 2.77 μM F1A-795, 1X Binding Buffer

With “F1A-795: acyclovir aptamer candidate, most prevalent sequence of family 795; SEQ ID NO:164 (ACAGCGAAGCATAATGGCTACTGACGCCCTCAAACCCTATTTGCAGACT; RNA riboswitch aptamer, listed DNA covers non-stem region only, further chemistry not given here) [Candidate F1A-795]” the thermal denaturation transition was “about 75 °C”.
